From the supplement of paper PMC9135407 come the findings set out here.

Values joined by “and” are separate entries in the source; they are usually repeats but may differ in a detail not shown here. Equal values may be shown once. Where a name gives a salt, the structure may show the parent alone. Screen size: about 5,800 compounds; about 620 (11%) showed activity.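 How the source made its calls: active = score above a cut-off or among the top three wells of a plate; in these data no inactive exceeds 0.85.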 The entries are a selection whose mix differs from that of the whole data set. Bounds are passed on as bounds.

For the assay, the system named is primary human hepatic stellate cells (donor 1). Kind of assay: scaled lipid accumulation score (0 = DMSO-like, 1 = nortriptyline-like); higher = stronger HSC inactivation (lipid re-accumulation), active = hit call of the paper. The settings on record: 48 h.
Where [1] appears, read: library stock concentration: 1 mM.
Where [2] appears, read: library stock concentration: 10 mM.
The mark [3] stands for this setting: library stock concentration: 3.33 mM.
[4] abbreviates: library stock concentration: 100 uM.

Regarding `c1cc2cc(N3CCNCC3)ccc2cn1` [6-piperazin-1-yl-Isoquinoline (hydrochloride)], the “scaled lipid accumulation score” value under setting [1] is inactive: ≤ 0.

In the case of `C[C@]12CCC3C(CC[C@]4(O)C[C@@H](O)CC[C@]34C=O)[C@@]1(O)CCC2C1=CC(=O)OC1` (some centres undefined) [Strophanthidin], the “scaled lipid accumulation score” value under setting [2] is active: 1.12.

As for `COc1cc(C(=O)OC2CC3CCC(C2)N3C)ccc1O` (centres undefined) [Fillalbin], the “scaled lipid accumulation score” value was inactive: ≤ 0.

With `NCC(CC(=O)O)c1ccc(Cl)cc1` (racemic) [Baclofen (R,S)], the “scaled lipid accumulation score” value is inactive: ≤ 0.

As to `N[C@@H]1C[C@H]1c1ccccc1` [Tranylcypromine hydrochloride], the “scaled lipid accumulation score” value was inactive: 0.103. In addition, the “scaled lipid accumulation score” value under setting [2] is inactive: ≤ 0 and inactive: 0.046.

Consider `N[C@@H]1C[C@H]1c1ccccc1` [Tranylcypromine (2-PCPA) HCl], for which the “scaled lipid accumulation score” value was inactive: ≤ 0 under setting [3] and inactive: ≤ -0.001 under setting [2].

`CN[C@@H](C)[C@@H](O)c1ccccc1` [Pseudoephedrine hydrochloride]: the “scaled lipid accumulation score” value reads like this: (library stock concentration: 9.9 mM) inactive: ≤ 0; under setting [2], inactive: ≤ 0.

As to `C[C@@H]1O[C@@H](O[C@H]2CC[C@]3(C=O)[C@H]4CC[C@]5(C)[C@@H](C6=CC(=O)OC6)CC[C@]5(O)[C@@H]4CC[C@]3(O)C2)[C@H](O)[C@H](O)[C@H]1O` [Convallatoxin], under setting [2], the “scaled lipid accumulation score” value was inactive: 0.656.

As for `CCCCC/C=C\C/C=C\CCCCCCCC(=O)NCCO` [Linoleoyl Ethanolamide], the “scaled lipid accumulation score” value under setting [1] was inactive: 0.001.

Turning to `O=C(O)C1=CCCN(CCOC(c2ccc(C(F)(F)F)cc2)c2ccc(C(F)(F)F)cc2)C1` [CI 966 hydrochloride], the “scaled lipid accumulation score” value under setting [2] is inactive: ≤ -0.006.

Turning to `CN1[C@@H]2C[C@@H](OC(=O)[C@H](CO)c3ccccc3)C[C@H]1[C@@H]1O[C@@H]12` [(-)-Scopolamine hydrobromide], the “scaled lipid accumulation score” value under setting [2] is inactive: ≤ 0.

Regarding `CN1[C@@H]2C[C@@H](OC(=O)[C@H](CO)c3ccccc3)C[C@H]1[C@@H]1O[C@@H]12` [Scopolamine HBr], the “scaled lipid accumulation score” value was inactive: ≤ 0 under setting [3], inactive: ≤ 0 (library stock concentration: 6.6 mM) and inactive: ≤ 0 under setting [2].

With `CN1[C@@H]2C[C@@H](OC(=O)[C@H](CO)c3ccccc3)C[C@H]1[C@@H]1O[C@@H]12` [Scopolamine hydrobromide], the “scaled lipid accumulation score” value was inactive: ≤ 0 (library stock concentration: 5.2 mM); inactive: ≤ 0 and inactive: 0.04 under setting [2].

Turning to `CN1[C@@H]2C[C@@H](OC(=O)[C@H](CO)c3ccccc3)C[C@H]1[C@@H]1O[C@@H]12` [Scopolamine hydrochloride], the “scaled lipid accumulation score” value is inactive: ≤ 0.

As for `Cc1sc2ccccc2c1CC1=NCCN1` [Benazoline oxalate], the “scaled lipid accumulation score” value under setting [2] is inactive: 0.663.

In the case of `CC[C@@H]1C=CC=CC[C@H](C)[C@@H](O)[C@@H](C)C(=O)[C@H](C)[C@@H](O)[C@H](C)C(=O)[C@H](C)[C@@H](O)[C@H](C)C=CC(=O)O[C@H]2[C@@H](C)[C@@H](CC1)O[C@@]1(CC[C@@H](C)[C@@H](C[C@H](C)O)O1)[C@@H]2C`, under setting [2], the “scaled lipid accumulation score” value is inactive: ≤ 0.

On to `CN(C)CCc1ccc(O)cc1` [Hordenine], for which the “scaled lipid accumulation score” value was inactive: ≤ 0 under setting [3] and inactive: ≤ 0 under setting [2].

Consider `NC1=NC(=O)C(c2ccccc2)O1` (centres undefined) [Pemoline], for which the “scaled lipid accumulation score” value under setting [2] is inactive: ≤ 0.

Take `CCOC(=O)C1(c2ccccc2)CCN(CCC(C#N)(c2ccccc2)c2ccccc2)CC1`: the “scaled lipid accumulation score” value under setting [2] was inactive: ≤ 0.

On to `C[C@]12CC[C@H](O)C[C@H]1CC[C@@H]1[C@@H]2C[C@@H](O)[C@]2(C)[C@@H](C3=CC(=O)OC3)CC[C@]12O` [Digoxigenin], for which the “scaled lipid accumulation score” value was active: 0.991.

In the case of `C/C(=C\c1csc(C)n1)[C@@H]1C[C@@H]2O[C@@H]2CCC[C@H](C)[C@H](O)[C@@H](C)C(=O)C(C)(C)[C@@H](O)CC(=O)O1` [Epothilone A], the “scaled lipid accumulation score” value is inactive: ≤ 0 under setting [3] and inactive: ≤ 0 under setting [2].

`CCCCC/C=C\C/C=C\C/C=C\C=C\[C@H](CCCC(=O)O)OO`: the “scaled lipid accumulation score” value under setting [4] was inactive: ≤ -0.021.

In the case of `COC1=C[C@@H]2[C@@H]3Cc4ccc(OC)c(O)c4[C@]2(CCN3C)CC1=O` [Sinomenine], the “scaled lipid accumulation score” value is inactive: ≤ 0 under setting [3] and inactive: ≤ 0 under setting [2].

As to `COP(=O)(OC)OC=C(Cl)Cl` [Dichlorvos], the “scaled lipid accumulation score” value (library stock concentration: 9.1 mM) was inactive: 0.057.

Regarding `S=C=NCc1ccccc1` [Benzyl isothiocyanate], the “scaled lipid accumulation score” value under setting [2] was inactive: ≤ 0.

On to `N#CC(C#N)=Cc1ccc(O)c(O)c1` [Tyrphostin 23], for which, under setting [2], the “scaled lipid accumulation score” value is inactive: ≤ 0.

On to `Cc1cccc(Cc2c[nH]cn2)c1C` [Detomidine HCl], for which the “scaled lipid accumulation score” value is inactive: ≤ 0 under setting [3] and inactive: ≤ 0 under setting [2].

In the case of `CN1CC[C@]2(CCN3CCc4c(oc5ccccc45)[C@@H]3C2)N(C)C1=O`, under setting [2], the “scaled lipid accumulation score” value was inactive: ≤ -0.055.

For `OC(Cc1ccncc1)C(Cl)(Cl)Cl` (centres undefined), under setting [2], the “scaled lipid accumulation score” value is inactive: ≤ -0.006.

Turning to `CS(=O)(=O)Nc1ccc(Cc2noc(-c3ccc4[nH]cc(CCN)c4c3)n2)cc1`, the “scaled lipid accumulation score” value under setting [2] is inactive: ≤ 0.

Consider `Cc1cccc(C)c1NC(=O)CN1CCCC1=O` [Nefiracetam], for which the “scaled lipid accumulation score” value is, setting by setting: under setting [3], inactive: ≤ 0; under setting [2], inactive: ≤ 0 and inactive: ≤ -0.07.

In the case of `C(#CCN1CCCC1)CN1CCCC1` [Tremorine dihydrochloride], the “scaled lipid accumulation score” value was inactive: 0.122.

Take `CCCCCCCCCCCCCC(=O)O[C@@H]1[C@@H](C)[C@@]2(O)[C@@H](C=C(CO)C[C@]3(O)C(=O)C(C)=C[C@@H]23)[C@@H]2C(C)(C)[C@]12OC(C)=O` [Phorbol 12-myristate 13-acetate]: the “scaled lipid accumulation score” value (library stock concentration: 8.1 mM) was active: 0.934.

In the case of `C[C@]12CCC(=O)C=C1C=C[C@@H]1[C@@H]2CC[C@@]2(C)[C@H]1CC[C@@]2(O)CCC(=O)O` [Canrenoic acid potassium salt], the “scaled lipid accumulation score” value is inactive: ≤ 0.

As for `C[C@]12CCC(=O)C=C1C=C[C@@H]1[C@@H]2CC[C@@]2(C)[C@H]1CC[C@@]2(O)CCC(=O)O` [Canrenoic acid, potassium salt], the “scaled lipid accumulation score” value was inactive: ≤ 0 (library stock concentration: 5 mM) and inactive: ≤ 0 under setting [2].

Consider `NC(=O)CI` [Iodoacetamide], for which the “scaled lipid accumulation score” value under setting [2] was inactive: 0.037.

With `CCCCC[C@@H](/C=C/C=C\C/C=C\C/C=C\CCCC(=O)O)OO`, the “scaled lipid accumulation score” value under setting [4] was inactive: ≤ -0.01.

Regarding `NC(=O)c1cc(N2CC2)c([N+](=O)[O-])cc1[N+](=O)[O-]`, the “scaled lipid accumulation score” value under setting [2] was inactive: ≤ 0.

Turning to `Cn1cc(C2=C(c3cn(C4CCN(Cc5ccccn5)CC4)c4ccccc34)C(=O)NC2=O)c2ccccc21`, the “scaled lipid accumulation score” value was inactive: ≤ 0 (library stock concentration: 80 uM); inactive: ≤ 0 (library stock concentration: 400 uM); inactive: ≤ 0 (library stock concentration: 2 mM); inactive: ≤ 0 under setting [3]; inactive: 0.048 and inactive: ≤ 0 under setting [2].

As for `CP(=O)(O)C1=CCNCC1`, the “scaled lipid accumulation score” value under setting [2] was inactive: ≤ 0.

In the case of `C[C@@H]1O[C@H](C[N+](C)(C)C)C[C@H]1O` [(?)-Muscarine chloride], under setting [2], the “scaled lipid accumulation score” value was inactive: 0.141.

Consider `O=c1n(Cl)c(=O)n(Cl)c(=O)n1Cl`, for which the “scaled lipid accumulation score” value under setting [2] is inactive: ≤ 0.

As for `C=CCN1CC[C@]23c4c5ccc(O)c4O[C@H]2C(=O)CC[C@@]3(O)[C@H]1C5` [Naloxone HCl], for the setting “library stock concentration: 6.1 mM”, the “scaled lipid accumulation score” value is inactive: ≤ 0.

Turning to `C=CCN1CC[C@]23c4c5ccc(O)c4O[C@H]2C(=O)CC[C@@]3(O)[C@H]1C5` [Naloxone hydrochloride], the “scaled lipid accumulation score” value is inactive: 0.021. The “scaled lipid accumulation score” value under setting [2] is inactive: ≤ 0 and inactive: ≤ -0.052.

`C=CCN1CC[C@]23c4c5ccc(O)c4O[C@H]2C(=O)CC[C@@]3(O)[C@H]1C5`: the “scaled lipid accumulation score” value under setting [2] was inactive: ≤ 0.

On to `C[C@@H]1CC[C@@]2(OC1)O[C@H]1C[C@H]3[C@@H]4CC=C5C[C@@H](O[C@@H]6O[C@H](CO)[C@@H](O[C@@H]7O[C@@H](C)[C@H](O)[C@@H](O)[C@H]7O)[C@H](O)[C@H]6O[C@@H]6O[C@@H](C)[C@H](O)[C@@H](O)[C@H]6O)CC[C@]5(C)[C@H]4CC[C@]3(C)[C@H]1[C@@H]2C` [Dioscin], for which the “scaled lipid accumulation score” value under setting [3] was inactive: 0.577 and the “scaled lipid accumulation score” value under setting [2] is inactive: 0.255.

On to `CCCCCCCC/C=C\CCCCCCCC(=O)Nc1ccccc1` [Oleyl Anilide], for which the “scaled lipid accumulation score” value under setting [1] was inactive: 0.024.

Regarding `c1ccc(Cn2ccnc2)cc1`, under setting [2], the “scaled lipid accumulation score” value was inactive: ≤ 0.

On to `C=CCc1ccc2c(c1)OCO2` [Safrole], for which, under setting [2], the “scaled lipid accumulation score” value is inactive: 0.109.

Turning to `CCCC(C)C1(CC)C(=O)NC(=O)NC1=O` (centres undefined) [Pentobarbital], for the setting “library stock concentration: 8.8 mM”, the “scaled lipid accumulation score” value is inactive: ≤ 0.

Take `C[C@]12C[C@H]3S[C@H]3C[C@@H]1CC[C@@H]1[C@@H]2CC[C@]2(C)[C@@H](O)CC[C@@H]12` [Epitiostanol]: the “scaled lipid accumulation score” value was inactive: ≤ 0.

For `COP(=O)(OC)C(O)C(Cl)(Cl)Cl` (centres undefined) [Trichlorfon], the “scaled lipid accumulation score” value was inactive: ≤ 0.

For `CC(N)Cc1c[nH]c2ccc(OCc3cccs3)cc12.Cl` (centres undefined), the “scaled lipid accumulation score” value under setting [2] is active: 1.18.

Take `CCCCC/C=C\C/C=C\C/C=C\C/C=C\CCCC(=O)Nc1cccc([N+](=O)[O-])c1` [Arachidonoyl m-Nitroaniline]: the “scaled lipid accumulation score” value under setting [1] was inactive: ≤ 0.

Regarding `O=C1C=CC[C@@H]2[C@H]3CCCN4CCC[C@@H](CN12)[C@@H]34` [Sophocarpine], the “scaled lipid accumulation score” value under setting [3] was inactive: ≤ 0 and the “scaled lipid accumulation score” value under setting [2] is inactive: ≤ 0.

For the compound `C[C@]12CCC(=O)C[C@@H]1CC[C@@H]1[C@@H]2CC[C@]2(C)C(=O)CC[C@@H]12` [5alpha-androstan-3,17-dione], under setting [2], the “scaled lipid accumulation score” value is inactive: ≤ -0.027.

For `CC(=O)O[C@H]1C[C@@H]2CC[C@@H]3[C@H](CC[C@@]4(C)[C@H]3C[C@H]([N+]3(C)CCCCC3)[C@@H]4OC(C)=O)[C@@]2(C)C[C@@H]1[N+]1(C)CCCCC1` [Pancuronium bromide], the “scaled lipid accumulation score” value was inactive: ≤ 0. Also, the “scaled lipid accumulation score” value under setting [2] was inactive: 0.086.

In the case of `CC(=O)O[C@H]1C[C@@H]2CC[C@@H]3[C@H](CC[C@@]4(C)[C@H]3C[C@H]([N+]3(C)CCCCC3)[C@@H]4OC(C)=O)[C@@]2(C)C[C@@H]1[N+]1(C)CCCCC1` [Pancuronium], the “scaled lipid accumulation score” value under setting [2] was inactive: ≤ 0.

As for `CC(=O)O[C@H]1C[C@@H]2CC[C@@H]3[C@H](CC[C@@]4(C)[C@H]3C[C@H]([N+]3(C)CCCCC3)[C@@H]4OC(C)=O)[C@@]2(C)C[C@@H]1[N+]1(C)CCCCC1` [Pancuronium dibromide], the “scaled lipid accumulation score” value reads like this: under setting [3], inactive: ≤ 0; under setting [2], inactive: ≤ 0.

On to `COC(=O)[C@@H](N)CCCNC(=N)N[N+](=O)[O-]`, for which the “scaled lipid accumulation score” value (library stock concentration: 21.4 mM) is inactive: ≤ -0.012.

For the compound `COC(=O)[C@@H](N)CCCNC(=N)N[N+](=O)[O-]` [L-NAME hydrochloride], the “scaled lipid accumulation score” value under setting [2] was inactive: ≤ 0.

Turning to `COC(=O)[C@@H](N)CCCNC(=N)N[N+](=O)[O-]` [NG-Nitro-L-arginine methyl ester hydrochloride], the “scaled lipid accumulation score” value under setting [2] was inactive: 0.047.

Take `COC(=O)[C@@H](N)CCCNC(=N)N[N+](=O)[O-]` [L-NAME (hydrochloride)]: under setting [1], the “scaled lipid accumulation score” value is inactive: ≤ 0.
